This is an account of results in article PMC3185033.

By UniProt entry, the sequences of proteins in these tests, tags left out. Where a name states a change or a piece, a line headed by the entry shows the natural chain unless it says otherwise. Chains listed by the source or under a name are the forms on record and can include a tag or linker. Residues count along the entry.
UniProt P48436: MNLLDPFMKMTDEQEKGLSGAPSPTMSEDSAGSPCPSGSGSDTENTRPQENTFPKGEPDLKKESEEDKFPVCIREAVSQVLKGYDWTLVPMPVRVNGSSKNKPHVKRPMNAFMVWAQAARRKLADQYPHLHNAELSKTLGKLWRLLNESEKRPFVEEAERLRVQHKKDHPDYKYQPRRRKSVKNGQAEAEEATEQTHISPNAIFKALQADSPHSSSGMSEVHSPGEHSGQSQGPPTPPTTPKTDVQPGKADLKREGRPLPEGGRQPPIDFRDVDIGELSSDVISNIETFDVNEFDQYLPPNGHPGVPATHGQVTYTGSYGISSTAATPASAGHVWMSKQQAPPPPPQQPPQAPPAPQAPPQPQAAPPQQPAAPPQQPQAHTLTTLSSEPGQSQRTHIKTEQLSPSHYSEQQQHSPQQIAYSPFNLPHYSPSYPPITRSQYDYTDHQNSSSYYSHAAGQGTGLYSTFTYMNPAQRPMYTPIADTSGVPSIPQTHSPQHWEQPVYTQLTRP
UniProt Q7M6Y2: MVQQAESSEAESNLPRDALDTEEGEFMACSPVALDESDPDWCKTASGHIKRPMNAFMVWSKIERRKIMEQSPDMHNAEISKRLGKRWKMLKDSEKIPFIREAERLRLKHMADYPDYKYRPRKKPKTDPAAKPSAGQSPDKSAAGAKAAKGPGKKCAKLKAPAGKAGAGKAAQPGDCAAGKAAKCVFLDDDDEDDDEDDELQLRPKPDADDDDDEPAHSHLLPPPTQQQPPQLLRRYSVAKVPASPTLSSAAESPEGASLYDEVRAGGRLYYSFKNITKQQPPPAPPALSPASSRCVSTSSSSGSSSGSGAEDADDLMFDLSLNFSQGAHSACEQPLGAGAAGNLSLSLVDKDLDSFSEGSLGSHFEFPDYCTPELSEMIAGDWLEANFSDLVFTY
GST-tagged HMG box fragment of Sox11 (38–130 a.a.): residues 38-130 of Q7M6Y2
UniProt Q04887: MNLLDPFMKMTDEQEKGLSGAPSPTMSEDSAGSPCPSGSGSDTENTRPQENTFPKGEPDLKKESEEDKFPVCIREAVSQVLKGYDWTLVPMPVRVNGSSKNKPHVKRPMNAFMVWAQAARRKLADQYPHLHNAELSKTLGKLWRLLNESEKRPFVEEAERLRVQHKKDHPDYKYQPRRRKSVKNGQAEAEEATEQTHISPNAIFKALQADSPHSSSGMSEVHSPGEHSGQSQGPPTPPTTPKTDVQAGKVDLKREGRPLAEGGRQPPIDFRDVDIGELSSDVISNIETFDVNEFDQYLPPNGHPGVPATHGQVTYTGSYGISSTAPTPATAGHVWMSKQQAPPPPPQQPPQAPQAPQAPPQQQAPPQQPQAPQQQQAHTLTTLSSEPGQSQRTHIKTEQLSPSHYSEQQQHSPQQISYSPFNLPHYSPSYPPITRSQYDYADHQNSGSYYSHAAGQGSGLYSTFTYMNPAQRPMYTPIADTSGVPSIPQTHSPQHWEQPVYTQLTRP
GST-fused Sox9 region #1 (1–99 a.a.): residues 1-99 of Q04887
GST-fused Sox9 region #2 (95–186 a.a.), HMG box domain: residues 95-186 of Q04887
GST-fused Sox9 region #3 (173–399 a.a.): residues 173-399 of Q04887
GST-fused Sox9 region #4 (336–507 a.a.): residues 336-507 of Q04887
UniProt P48432: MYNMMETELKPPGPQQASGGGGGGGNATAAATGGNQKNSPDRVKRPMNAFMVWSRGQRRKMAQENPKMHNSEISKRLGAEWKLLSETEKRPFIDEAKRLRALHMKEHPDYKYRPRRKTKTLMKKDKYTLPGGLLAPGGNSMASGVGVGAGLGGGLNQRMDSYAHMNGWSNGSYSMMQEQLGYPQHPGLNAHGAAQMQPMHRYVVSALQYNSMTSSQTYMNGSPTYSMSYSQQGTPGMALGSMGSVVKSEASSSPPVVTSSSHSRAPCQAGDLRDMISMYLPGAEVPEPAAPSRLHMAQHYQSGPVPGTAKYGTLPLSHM
UniProt Q9C0E2: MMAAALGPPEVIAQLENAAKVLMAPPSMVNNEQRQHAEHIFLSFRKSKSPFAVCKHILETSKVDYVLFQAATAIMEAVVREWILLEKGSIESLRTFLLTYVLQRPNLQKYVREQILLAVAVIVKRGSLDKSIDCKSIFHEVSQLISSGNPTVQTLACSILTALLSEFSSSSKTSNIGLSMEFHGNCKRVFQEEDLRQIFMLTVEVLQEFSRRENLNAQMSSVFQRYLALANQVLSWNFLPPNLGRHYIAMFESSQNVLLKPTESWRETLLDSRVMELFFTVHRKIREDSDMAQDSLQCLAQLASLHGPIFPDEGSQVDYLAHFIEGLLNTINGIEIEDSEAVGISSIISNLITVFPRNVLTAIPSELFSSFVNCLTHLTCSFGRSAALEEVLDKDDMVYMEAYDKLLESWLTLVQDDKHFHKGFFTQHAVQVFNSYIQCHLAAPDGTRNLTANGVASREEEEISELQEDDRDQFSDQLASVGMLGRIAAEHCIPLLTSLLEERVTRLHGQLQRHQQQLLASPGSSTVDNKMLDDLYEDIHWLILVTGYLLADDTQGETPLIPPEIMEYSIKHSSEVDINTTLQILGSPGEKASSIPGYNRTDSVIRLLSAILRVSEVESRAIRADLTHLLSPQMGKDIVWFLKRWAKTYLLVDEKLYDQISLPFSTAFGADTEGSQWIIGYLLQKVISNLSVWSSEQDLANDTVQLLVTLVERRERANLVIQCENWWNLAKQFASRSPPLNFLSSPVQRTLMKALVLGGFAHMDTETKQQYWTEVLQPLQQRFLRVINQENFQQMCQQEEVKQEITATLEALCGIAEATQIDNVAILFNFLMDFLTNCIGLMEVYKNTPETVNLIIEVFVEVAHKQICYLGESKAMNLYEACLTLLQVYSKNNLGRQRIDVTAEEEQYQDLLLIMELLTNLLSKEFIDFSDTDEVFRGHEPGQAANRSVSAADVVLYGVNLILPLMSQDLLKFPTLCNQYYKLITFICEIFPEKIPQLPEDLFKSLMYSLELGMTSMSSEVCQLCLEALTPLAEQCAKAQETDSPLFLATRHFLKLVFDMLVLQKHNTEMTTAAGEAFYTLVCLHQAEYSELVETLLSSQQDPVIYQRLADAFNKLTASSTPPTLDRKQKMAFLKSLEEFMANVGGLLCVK

No constants are given. Whether binding was seen depends on the method and setting. For part of these data: Binding seen in cells or lysates may run through a third protein. Some binding calls cover weakened binding; strength is not graded here.

Assay [1] deals with Sox9, endogenous in U2OS nuclear extract (human (endogenous in U2OS)) (UniProt P48436). Kind of assay: co-IP; U2OS nuclear extract, anti-Sox9 antibody 1 hr at 4°C, protein A-Sepharose; Western blot with anti-Exp4; normal rabbit IgG as control.
Assay [2] has as its target GST-tagged HMG box fragment of Sox11 (38–130 a.a.) (mouse) (UniProt Q7M6Y2). Kind of assay: pull-down; GST-fused HMG box fragments incubated with purified recombinant FLAG-Exp4 and glutathione Sepharose 2 hr at 4°C; Western blot with anti-Exp4; no RanGTP; both purified. (Immunoblotting shows a protein as a band on a membrane.)
Assay [3] deals with HA-tagged mouse Sox11 (mouse) (UniProt Q7M6Y2). The assay can be described thus: co-IP; HEK293 cells co-transfected with HA-Sox and FLAG-Exp4 for 36 hr; lysate, anti-HA (12CA5) on protein A-Sepharose; Western blot with anti-Exp4 and anti-HA.
Another assay has as its target HA-tagged Sox9 (mouse) (UniProt Q04887). The assay is described as above.
Assay [4] concerns the target HA-tagged mouse Sox2 (mouse) (UniProt P48432). The assay is described as above.
Assay [5] addresses GST-fused Sox9 region #3 (173–399 a.a.) (mouse) (UniProt Q04887). The assay can be described thus: pull-down; GST-fused Sox9 fragments on glutathione-Sepharose incubated with HeLa nuclear extract 2 hr at 4°C; Western blot with anti-Exp4; only the target purified.
Assay [6] deals with GST-fused Sox9 region #2 (95–186 a.a.), HMG box domain (mouse) (UniProt Q04887). The description is as above.
Assay [7] has as its target GST-fused Sox9 region #4 (336–507 a.a.) (mouse) (UniProt Q04887). The assay is described as above.
Assay [8] has as its target GST-fused Sox9 region #1 (1–99 a.a.) (mouse) (UniProt Q04887). Described as above.

With “exportin 4 (Exp4), endogenous in U2OS nuclear extract (from UniProt Q9C0E2 1-1151)”, the binding entry in [1] is “binds”.
Regarding “purified recombinant FLAG-Exp4 protein (from UniProt Q9C0E2 1-1151)”, the binding result in assay [2] was “no binding”.
As for “FLAG-Exp4 expressed in HEK293 cells (from UniProt Q9C0E2 1-1151)”, the binding result is “no binding” in [3], “binds” in the assay with HA-tagged Sox9 (mouse) and “binds” in [4].
For “exportin 4 (Exp4), endogenous in HeLa nuclear extract (from UniProt Q9C0E2 1-1151)”, the binding entry in assay [5] is reported as “no binding”; in assay [6], “binds”; in [7], “no binding”; in assay [8], “no binding”.
